In PubChem BioAssay AID1159614 (National Center for Advancing Translational Sciences (NCATS), 2016):
Among all 45,000 compounds or so, about 65 (0.1%) were called active. Calls follow the shape of the dose curve; as a rule, active = well fitted activation curve with a large enough effect; inconclusive = small, poorly fitted or top-dose-only effect; inactive = no such curve, though single readings can be large or run the other way. The list shows a part of the results.

What follows are compounds tested against Galactocerebrosidase (Homo sapiens) (UniProt P54803) (assay: A Novel Cell-Based Assay to Identify Small Molecules for B -Galactocerebrosidase). Settings: 145M-Twi-hGALC-G270D cells (Twitcher mouse brain line with human GALC G270D), HMU-beta-Gal fluorescence, 48 h; series mostly up to 57.5 µM; activation: at the top concentration.
Sequence of UniProt P54803 (P54803 whole entry, looked up): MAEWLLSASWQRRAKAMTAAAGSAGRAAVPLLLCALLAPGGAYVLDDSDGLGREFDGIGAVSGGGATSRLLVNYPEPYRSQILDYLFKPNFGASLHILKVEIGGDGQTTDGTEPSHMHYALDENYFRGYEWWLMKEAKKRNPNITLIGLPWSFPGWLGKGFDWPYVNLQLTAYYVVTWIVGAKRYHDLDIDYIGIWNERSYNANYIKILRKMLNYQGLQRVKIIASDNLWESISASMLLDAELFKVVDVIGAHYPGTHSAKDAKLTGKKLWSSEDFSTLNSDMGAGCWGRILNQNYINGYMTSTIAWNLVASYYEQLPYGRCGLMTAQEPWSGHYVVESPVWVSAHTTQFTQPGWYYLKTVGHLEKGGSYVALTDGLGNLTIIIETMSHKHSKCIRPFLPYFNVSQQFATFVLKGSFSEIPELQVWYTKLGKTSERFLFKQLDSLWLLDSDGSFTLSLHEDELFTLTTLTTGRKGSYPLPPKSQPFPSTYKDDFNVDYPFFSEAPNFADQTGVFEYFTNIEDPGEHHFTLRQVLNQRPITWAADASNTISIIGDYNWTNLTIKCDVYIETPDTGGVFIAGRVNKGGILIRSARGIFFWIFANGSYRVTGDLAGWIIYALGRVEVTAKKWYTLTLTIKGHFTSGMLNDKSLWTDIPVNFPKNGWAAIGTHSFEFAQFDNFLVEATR
In short: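 Brain-derived Twitcher mouse 145M-Twi cells stably expressing human GALC-G270D or wild-type GALC, treated live, then residual GALC activity read by fluorescence of HMU-b-Gal substrate (0.1 mM final) in citrate-phosphate buffer pH 5.2 with sodium taurocholate. Signal increase indicates enhancement.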
Also: 0% is about no effect; nearly all actives have a fitted effect of over 65% in size.

activation, inactive:
Nc1c(C(=O)Nc2ccccc2Cl)c2ccccn2c1C(=O)c1ccccc1 -12.8%
CCOc1ccc(NC(=O)c2c(NCc3cccc(OC)c3OC)sc3c2CCC3)cc1 -5.92%
CCc1ccc(NC(=O)CN(c2ccc(Cl)cc2)S(=O)(=O)c2ccsc2C(=O)OC)cc1 -30.9%
O=C(C1CCCN(S(=O)(=O)c2cccc3nsnc23)C1)N1CCN(c2ccccc2)CC1 (centres undefined) -21.8%
O=C1NCN(c2ccccc2)C12CCN(CCCC(c1ccc(F)cc1)c1ccc(F)cc1)CC2 -4.52%
COc1ccc(OC)c(CNC(=O)c2ccc3c(c2)c(C)c(C)n3Cc2ccc(Cl)cc2)c1 -5.87%
Cc1ccc(C)c(CN2C(=O)C(O)(c3c(C)[nH]c4ccccc34)c3ccccc32)c1 (centres undefined) -27.6%
O=C(NCc1cccs1)c1ccc2c(c1)N(Cc1cccc(F)c1)C(=O)c1ccccc1S2 -17.8%
CCOC(=O)c1noc2nc(C)n(CC(=O)NC(C)CC)c(=O)c12 (centres undefined) -27.8%
Cc1cc(C)cc(NC(=O)CSc2nc(=O)n(CCN3CCOCC3)c3c2CCC3)c1 -5.85%
COC(=O)c1c(NC(=O)Cc2coc3cc(C)ccc23)sc2c1CCC2 -3.7%
Cc1ccc(Cl)cc1NC(=O)CSc1nccn1C -3.03%
CCCCN(CC)C(=O)c1nn(C)c2c1CSc1ccccc1-2 -10.4%
Cc1oc(-c2cccc(Cl)c2)nc1CS(=O)(=O)CC(=O)NC(C)CCc1ccccc1 (centres undefined) 11.9%
CC(=O)c1cccc(NC(=O)CSc2nc(=O)n(Cc3ccco3)c3c2CCC3)c1 -3.79%
CCOc1ccccc1CNC(=O)c1ccc2c(c1)N(Cc1ccc(C)cc1)CCS2 -39%
COc1ccc(Cl)cc1NC(=O)C(C)Sc1nc2c(c(=O)[nH]1)CCCC2 (centres undefined) 5.09%
CC1(C)O[C@H]2[C@@H](O1)[C@@H](C(=O)Nc1ccccc1C(F)(F)F)O[C@@H]1OC(C)(C)O[C@@H]12 -12.7%
COc1ccc(-n2c(-c3ccco3)nc3c(cnn3-c3ccc(Cl)cc3)c2=O)cc1 4.08%
O=C(NCCc1ccccc1Cl)C1CCN(c2nc3ccccc3nc2C(F)(F)F)CC1 6.72%
Cc1ccc(NC(=O)C2CCCN(C(=O)c3cnn(-c4ccc(F)cc4)c3-n3cccc3)C2)c(Cl)c1 (centres undefined) -31.5%
Cc1ccccc1CNC(=O)C(C)N(c1ccccc1)S(C)(=O)=O (centres undefined) -6.51%
O=C(CSc1ccc(-c2cccs2)nn1)Nc1ccccc1C(F)(F)F -6.57%
O=C(CCC1N=C2c3ccccc3N=C(SCc3ccc(F)cc3)N2C1=O)NCCc1ccccc1 (centres undefined) -23.3%
CCOc1ccc(/C=C/c2nc(C#N)c(NCc3ccccc3)o2)cc1 -13.9%
Cc1cccn2c(=O)c(C(=O)NC(C)c3ccccc3)cnc12 (centres undefined) -3.71%
Cc1ccc(OCc2nc(-c3ccc(C(=O)NCc4ccc(OC(C)C)cc4)cc3)oc2C)cc1 -16.2%
CCN(C(=O)c1cc2c(=O)oc3ccc(C)cc3c2s1)c1ccccc1C -11.4%
CCN(CC)S(=O)(=O)c1ccc2nc(NC(=O)c3cncc(Br)c3)sc2c1 -13.8%
Cc1ccc(C(=O)c2cn(Cc3ccc(Cl)cc3)c3nc(C)ccc3c2=O)cc1 -14.5%
COc1ccc(N2CCN(C(=O)CSc3n[nH]c(-c4ccccc4Cl)n3)CC2)cc1 -8.06%
Cc1cc(C)cc(N2C(=O)N(Cc3cccc(F)c3)c3ccccc3S2(=O)=O)c1 -11.4%
COc1ccc(Nc2oc(-c3ccc(COc4ccccc4C)o3)nc2C#N)cc1 -10.6%
Cc1ccc(C)c(CN2C(=O)c3ccccc3S(=O)(=O)c3ccc(C(=O)NCCC4=CCCCC4)cc32)c1 -11.3%
Cc1cc(C)c(NC(=O)C(C)n2nnc3sc4c(c3c2=O)CCCC4)c(C)c1 (centres undefined) -0.604%
Cc1ccc2oc(=O)c(S(=O)(=O)c3ccc(C(C)(C)C)cc3)cc2c1 -17.9%
CN(C)c1ccc(CNC(=O)CN2CCSc3ccc(S(=O)(=O)N(C)C)cc32)cc1 -39.7%
CCc1ccccc1NC(=O)Nc1nnc(N(CC)c2ccccc2)s1 -17.3%
COc1ccc(OC)c2sc(N(Cc3cccnc3)C(=O)c3ccco3)nc12 -4.91%
Cc1cc(NC(=O)CN2C(=O)c3cccnc3Sc3ccccc32)ccc1Br -11.9%
CCN1CCN(c2ncc3c(n2)CC(c2ccccc2O)CC3=O)CC1 (centres undefined) -12.9%
Cc1ccc(CNC(=O)c2cc(-c3ccc(Cl)cc3)on2)cc1 -16.6%
COc1ccc(CNC(=O)c2oc3c(c2C)-c2nn(Cc4ccc(Cl)cc4)cc2CC3)cc1 -13.1%
O=C(Nc1ccc(Br)cc1)C1CCCN1S(=O)(=O)c1ccc(F)cc1 (centres undefined) -14.3%
CC(C)(C)c1ccc(C(=O)Nc2sc3c(c2C#N)CCC(C(C)(C)C)C3)cc1 (centres undefined) -11.1%
CCOc1ccc(NC(=O)Cn2c(=O)n(CC(=O)NCc3ccccc3Cl)c(=O)c3sccc32)cc1 23.6%
Cc1ccc(NC(=O)C2CCN(c3nn4cc(-c5ccc(C)cc5)nc4s3)CC2)cc1 -14%
Cc1ccc(CNC(=O)CNS(=O)(=O)c2cccs2)cc1 -18.2%
CCCCCn1c(=O)[nH]c2cc(C(=O)N3CCN(c4cccc(C(F)(F)F)c4)CC3)ccc2c1=O -0.0307%
CCN(c1ccccc1)S(=O)(=O)c1nnc(NC(=O)COc2cccc(C)c2)s1 -7.15%
CC(C)c1nn2c(=O)cc(COC(=O)c3ccccc3NC(=O)c3cccc(Cl)c3)nc2s1 -8.34%
COc1ccc(CCNC(=O)CCn2c(=O)c3ccccc3n(Cc3ccccc3)c2=O)cc1OC 1.28%
Cc1nnc(NC(=O)CSCc2cc(=O)c3ccccc3[nH]2)s1 -14.4%
COc1cc(OC)c(NS(=O)(=O)c2c(C(=O)N3CCC(C)CC3)c(C)n(C)c2C)cc1Cl 1.25%
Nc1c(I)cc(I)c(C(=O)N(CCC(=O)O)c2ccccc2)c1I -6.59%
CCc1ccc(C(=O)c2cn(Cc3ccc(F)cc3)c3cc(OC)c(OC)cc3c2=O)cc1 -6.59%
COc1ccc(N2CCN(Cc3nnc(-c4cccc(Br)c4)o3)CC2)cc1 -10.1%
COc1ccc(CCNC(=O)C(C)n2c(=O)cc(C(F)(F)F)c3c(C)nn(C)c32)cc1OC (centres undefined) -14.7%
Cc1cc(C)cc(Oc2nc3c(C)cccn3c(=O)c2/C=C(\C#N)c2nc3ccccc3s2)c1 -11.6%
CCS(=O)(=O)N1CC(=O)N(c2ccc(Cl)cc2)C(C)(C(=O)NC2CCCCCC2)C1 (centres undefined) 4.34%
COC(=O)c1ccccc1NC(=O)c1cnc2c(-c3cccc(C)c3)c(C)nn2c1C -17.3%
Cc1nc2ccn(Cc3cccnc3)c(=O)c2cc1C(=O)N1CCN(c2ccc(F)cc2)CC1 -17.8%
CN(C)CCNc1oc(-c2ccc(COc3ccc(Cl)cc3)o2)nc1C#N -7.94%
CC(C)Cn1c(-c2ccc(S(=O)(=O)N3CCOCC3)cc2)csc1=Nc1cc(Cl)ccc1Cl -12.9%
COc1cccc(NC(=O)/C(C#N)=C/c2c(C)n(Cc3ccc(Cl)cc3)c3ccccc23)c1 -19.5%
COc1ccc(CCn2c3c(c(=O)[nH]c2=O)C(NC(=O)c2ccc(C(C)(C)C)cc2)(C(F)(F)F)C(=O)N3)cc1OC (centres undefined) -5.78%
Cc1ccc(C(C)C)c(OCCSc2nc3ccccc3n2CC(O)CO)c1 (centres undefined) -13.3%
COc1ccccc1Cc1nc2ccccc2nc1SCC(=O)N1CCN(c2ccccc2)CC1 -13.4%
CC(=O)c1cc(-c2ccc(F)cc2)n(CC(=O)Nc2cc(C)cc(C)c2)c1C -11.1%
CCOc1ccc(Nc2nc3c(S(=O)(=O)c4ccc(C(C)C)cc4)nnn3c3ccsc23)cc1 -6.72%
Cc1cc2nc(-c3ccc(NC(=O)c4cc5ccccc5o4)cc3)oc2cc1C 5.71%
O=C(NCc1ccco1)c1ccc2c(c1)N(Cc1ccc(Cl)cc1)C(=O)c1ccccc1S2 -0.177%
CC(=O)N1CCc2cc(S(=O)(=O)C(C)CC(=O)Nc3ccc(Br)c(C)c3)ccc21 (centres undefined) -9.2%
CN(C)S(=O)(=O)c1ccc(C(=O)NCCSc2c(-c3ccccc3)[nH]c3ccccc23)cc1 -19.2%
COc1ccc2nc(N(Cc3cccnc3)C(=O)Cc3ccccc3)sc2c1 -16.4%
COc1cc(S(=O)(=O)NCCc2c(C)[nH]c3ccccc23)c(C)cc1C -15%
CCc1cccc(-n2c(=O)c3cccnc3n2CC(=O)Nc2c(C)cc(C)cc2C)c1 -19%
COc1ccc(N(Cc2cc3cccc(C)c3[nH]c2=O)C(=O)c2cccc(Cl)c2)cc1 -14.4%
COc1ccccc1CNC(=O)CN1C(=O)COc2ccc(S(=O)(=O)NC3CCCC3)cc21 -5.2%
CC1CCN(CC2CCN(C(=O)Nc3ccc(Br)cc3F)CC2)CC1 -17.4%
Cc1cccc(-n2c(CNC(=O)c3cccc(F)c3)nnc2SCC(=O)Nc2ccccc2F)c1 -14.3%
Fc1cccc(-c2nnn3c2nc(NC2CCCCC2)c2ccccc23)c1 -6.23%
COc1ccc(NC(=O)C2=C(C)Nc3ncnn3C2c2cccn2C)cc1 (centres undefined) -26%
CC(=O)Nc1ccc(S(=O)(=O)NC2=NCN(CCO)CN2)cc1 3.3%
CCOCCCN1C(=O)c2ccccc2CC1(C)C(=O)NC1CCCCC1 (centres undefined) 1.85%
COC(=O)c1ccccc1NC(=O)c1sc2nc(C)cc(C)c2c1NC(=O)c1ccccc1OC -19.1%
COc1ccc(Cc2cnc(N)nc2N)cc1OC -13.4%
Cc1ccc(Cl)cc1-n1ncc2c(N3CCN(Cc4ccccc4)CC3)ncnc21 3.56%
Cc1noc(C)c1S(=O)(=O)N(CC(=O)NCCc1ccccc1)c1ccc(C(C)C)cc1 4.8%
CCOC(=O)c1c(NC(=O)c2ccc(S(=O)(=O)N(C)C3CCCCC3)cc2)sc2c1CCN(C(C)C)C2 -24.5%
COc1ccc(-c2nc(S(=O)(=O)c3ccc(Cl)cc3)c(NCc3ccccc3)o2)cc1 -15.2%
COc1ccc(CNC(=O)C2CCC(CNS(=O)(=O)c3ccc4c(c3)CCCC(=O)N4)CC2)cc1 (centres undefined) -0.484%
Cc1ccc(-c2cn3c(n2)sc2cc(C(=O)NCCC4=CCCCC4)ccc23)cc1 -11.7%
COc1cc(-c2nc(Cn3nnc(C(=O)Nc4cccc(Cl)c4)c3C)c(C)o2)cc(OC)c1OC -1.08%
